Laboratory results: PMC6977477
Results are given in words; binding and its absence hold for the method and conditions named. Some entries that bind do so weakly or less than the wild type. Blank lines part the entries; values can stand above or below the binder they belong to.

Experiments:
Experiment in all cases: two-hybrid; GAL4 system, co-transformation of pAS2.1-attR/pACT-attR (or TTG1-pcACT2) vector combinations; colonies on SD-LWH with 3, 5, 10, 15, 20, 30 mM 3-AT, SD-LW as control; scanned after three and seven days; at least three replicates
[1] = target: T1, LIGHT-REGULATED WD1 (Arabidopsis thaliana (cDNA from Col-0 seedlings)) (UniProt Q9LPV9)
T1 sequence: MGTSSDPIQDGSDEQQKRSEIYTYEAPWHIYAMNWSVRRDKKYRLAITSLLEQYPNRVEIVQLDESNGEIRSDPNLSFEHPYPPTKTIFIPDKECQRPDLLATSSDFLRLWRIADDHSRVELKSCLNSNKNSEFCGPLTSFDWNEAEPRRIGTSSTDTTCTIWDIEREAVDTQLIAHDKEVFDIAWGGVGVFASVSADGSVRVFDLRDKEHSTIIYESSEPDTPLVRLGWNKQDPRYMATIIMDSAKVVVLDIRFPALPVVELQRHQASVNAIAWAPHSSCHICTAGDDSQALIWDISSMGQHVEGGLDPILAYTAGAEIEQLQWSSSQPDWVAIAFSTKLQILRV

[2] = target: T2, LIGHT-REGULATED WD2 (Arabidopsis thaliana (cDNA from Col-0 seedlings)) (UniProt Q38960)
T2 sequence: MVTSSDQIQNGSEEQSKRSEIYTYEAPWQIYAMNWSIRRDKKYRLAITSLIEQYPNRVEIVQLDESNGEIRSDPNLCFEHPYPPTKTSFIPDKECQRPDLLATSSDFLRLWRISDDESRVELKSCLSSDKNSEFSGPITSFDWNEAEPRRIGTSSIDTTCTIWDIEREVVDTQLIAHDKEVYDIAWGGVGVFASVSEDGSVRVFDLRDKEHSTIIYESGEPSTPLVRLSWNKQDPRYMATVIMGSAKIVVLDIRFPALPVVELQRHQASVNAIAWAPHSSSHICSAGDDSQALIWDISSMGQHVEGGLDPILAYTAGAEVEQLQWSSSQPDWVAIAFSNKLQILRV

[3] = target: T3, PSEUDO RESPONSE REGULATOR 5 (Arabidopsis thaliana (cDNA from Col-0 seedlings)) (UniProt Q6LA42)
T3 sequence: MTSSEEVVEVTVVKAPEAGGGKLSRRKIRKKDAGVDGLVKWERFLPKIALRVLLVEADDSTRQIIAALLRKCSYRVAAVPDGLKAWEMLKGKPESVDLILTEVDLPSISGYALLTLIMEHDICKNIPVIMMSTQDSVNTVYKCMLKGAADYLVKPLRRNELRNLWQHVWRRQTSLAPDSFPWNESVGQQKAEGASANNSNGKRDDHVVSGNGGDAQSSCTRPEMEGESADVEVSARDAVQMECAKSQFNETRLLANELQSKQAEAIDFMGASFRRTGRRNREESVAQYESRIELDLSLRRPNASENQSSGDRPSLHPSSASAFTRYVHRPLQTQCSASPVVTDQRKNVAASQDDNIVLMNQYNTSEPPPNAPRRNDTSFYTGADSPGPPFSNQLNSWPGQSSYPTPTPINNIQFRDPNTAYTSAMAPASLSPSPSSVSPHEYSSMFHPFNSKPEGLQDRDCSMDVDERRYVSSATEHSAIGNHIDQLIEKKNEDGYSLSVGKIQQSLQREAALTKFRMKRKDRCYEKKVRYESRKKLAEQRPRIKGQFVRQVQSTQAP

[4] = target: T4, PSEUDO RESPONSE REGULATOR 7 (Arabidopsis thaliana) (UniProt Q93WK5)
T4 sequence: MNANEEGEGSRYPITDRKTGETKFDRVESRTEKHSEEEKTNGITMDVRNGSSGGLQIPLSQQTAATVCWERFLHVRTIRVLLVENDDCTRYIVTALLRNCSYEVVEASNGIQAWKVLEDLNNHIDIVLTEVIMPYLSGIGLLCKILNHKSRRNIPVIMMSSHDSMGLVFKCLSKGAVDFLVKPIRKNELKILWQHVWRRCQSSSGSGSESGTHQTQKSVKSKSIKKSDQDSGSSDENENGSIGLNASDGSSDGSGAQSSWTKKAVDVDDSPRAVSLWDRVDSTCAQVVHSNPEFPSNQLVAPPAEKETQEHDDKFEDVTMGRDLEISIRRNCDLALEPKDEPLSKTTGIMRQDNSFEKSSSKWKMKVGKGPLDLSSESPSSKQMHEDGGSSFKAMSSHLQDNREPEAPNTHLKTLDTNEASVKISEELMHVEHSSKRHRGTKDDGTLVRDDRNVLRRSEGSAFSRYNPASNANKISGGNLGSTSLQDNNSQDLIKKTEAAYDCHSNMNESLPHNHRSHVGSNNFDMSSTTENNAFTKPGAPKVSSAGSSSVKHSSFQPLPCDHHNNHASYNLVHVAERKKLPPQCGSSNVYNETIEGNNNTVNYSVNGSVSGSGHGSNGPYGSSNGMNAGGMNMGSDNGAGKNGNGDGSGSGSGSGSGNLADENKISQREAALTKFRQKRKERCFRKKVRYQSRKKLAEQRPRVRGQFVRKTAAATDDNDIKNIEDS

[5] = target: T5, PSEUDO RESPONSE REGULATOR 9 (Arabidopsis thaliana) (UniProt Q8L500)
T5 sequence: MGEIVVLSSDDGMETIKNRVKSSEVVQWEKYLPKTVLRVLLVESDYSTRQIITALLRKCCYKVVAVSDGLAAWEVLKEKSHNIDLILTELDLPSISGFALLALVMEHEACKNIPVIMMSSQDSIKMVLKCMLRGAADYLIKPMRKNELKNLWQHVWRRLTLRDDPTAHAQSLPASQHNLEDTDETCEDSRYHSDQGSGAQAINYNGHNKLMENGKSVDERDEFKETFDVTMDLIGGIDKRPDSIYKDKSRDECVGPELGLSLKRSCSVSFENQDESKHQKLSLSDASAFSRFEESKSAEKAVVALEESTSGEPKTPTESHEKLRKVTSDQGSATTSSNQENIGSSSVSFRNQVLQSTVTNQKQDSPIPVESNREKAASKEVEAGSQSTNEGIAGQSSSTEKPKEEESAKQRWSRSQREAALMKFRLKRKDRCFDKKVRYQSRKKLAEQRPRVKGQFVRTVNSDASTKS

[6] = target: T6, TIMING OF CAB EXPRESSION 1 (Arabidopsis thaliana (cDNA from Col-0 seedlings)) (UniProt Q9LKL2)
T6 sequence: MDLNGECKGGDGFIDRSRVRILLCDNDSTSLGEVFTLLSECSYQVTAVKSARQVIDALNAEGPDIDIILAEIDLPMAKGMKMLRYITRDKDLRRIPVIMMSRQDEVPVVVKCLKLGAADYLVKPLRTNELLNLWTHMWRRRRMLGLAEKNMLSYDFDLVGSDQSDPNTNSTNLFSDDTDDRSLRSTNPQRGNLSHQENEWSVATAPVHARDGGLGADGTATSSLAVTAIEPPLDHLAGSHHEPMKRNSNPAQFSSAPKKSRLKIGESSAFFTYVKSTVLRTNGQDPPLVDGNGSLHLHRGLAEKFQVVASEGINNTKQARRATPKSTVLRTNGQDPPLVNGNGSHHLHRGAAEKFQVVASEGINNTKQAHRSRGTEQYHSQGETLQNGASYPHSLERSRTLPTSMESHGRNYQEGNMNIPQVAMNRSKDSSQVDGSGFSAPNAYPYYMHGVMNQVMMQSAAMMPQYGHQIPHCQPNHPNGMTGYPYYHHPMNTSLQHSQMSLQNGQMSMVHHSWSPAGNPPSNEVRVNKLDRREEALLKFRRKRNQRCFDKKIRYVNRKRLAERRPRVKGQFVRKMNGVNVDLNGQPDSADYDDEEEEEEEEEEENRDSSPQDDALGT

[7] = target: T7, … TESTA GLABRA 1 (Arabidopsis thaliana) (UniProt Q9XGN1)
T7 sequence: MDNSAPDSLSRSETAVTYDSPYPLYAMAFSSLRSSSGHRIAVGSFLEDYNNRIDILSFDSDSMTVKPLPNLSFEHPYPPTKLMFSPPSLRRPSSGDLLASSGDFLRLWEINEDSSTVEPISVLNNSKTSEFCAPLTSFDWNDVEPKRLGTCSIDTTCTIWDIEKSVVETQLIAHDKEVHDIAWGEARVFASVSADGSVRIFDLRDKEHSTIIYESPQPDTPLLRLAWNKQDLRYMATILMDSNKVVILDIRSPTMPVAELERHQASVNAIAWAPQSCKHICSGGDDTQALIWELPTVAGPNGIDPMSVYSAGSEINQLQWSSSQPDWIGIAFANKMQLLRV

[8] = target: T8, basic HELIX-LOOP-HELIX 92 (Arabidopsis thaliana (cDNA from Col-0 seedlings)) (UniProt Q9FIX5)
T8 sequence: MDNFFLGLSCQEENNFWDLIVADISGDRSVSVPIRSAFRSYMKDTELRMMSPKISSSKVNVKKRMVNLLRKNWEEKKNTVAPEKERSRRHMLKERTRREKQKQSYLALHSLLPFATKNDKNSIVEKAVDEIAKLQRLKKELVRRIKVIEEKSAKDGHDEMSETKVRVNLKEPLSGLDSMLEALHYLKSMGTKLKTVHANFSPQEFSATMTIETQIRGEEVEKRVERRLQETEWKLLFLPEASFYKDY

- binding [1]: no binding
- binding [2]: no binding
- binding [3]: no binding
- binding [4]: no binding
- binding [5]: no binding
- binding [6]: no binding
- binding [7]: binds
B1: basic HELIX-LOOP-HELIX 92 (protein, UniProt Q9FIX5 1-247)
chain: T8 sequence

- binding [7]: binds
B2: PSEUDO RESPONSE REGULATOR 9 (protein, UniProt Q8L500 1-468)
chain: T5 sequence

- binding [3]: binds
- binding [8]: binds
B3: … TESTA GLABRA 1 (protein, UniProt Q9XGN1 1-341)
chain: T7 sequence
